# From PubChem BioAssay AID686979 (National Center for Advancing Translational Sciences (NCATS), 2013)
# Values joined by “and” are separate entries in the source; they are usually repeats but may differ in a detail not shown here. Equal entries are not always repeated. In all, about 420,000 compounds went through this assay and about 50,000 (12%) were called active. The shares of active, inactive and inconclusive entries below differ from those in the screen. Calls follow the shape of the dose curve; as a rule, active = well fitted inhibition curve with a large enough effect; inconclusive = small, poorly fitted or top-dose-only effect; inactive = flat fitted curve, though single readings scatter. Where the call is inconclusive, the potency comes from a doubtful curve fit.
# Assay: qHTS for Inhibitors of human tyrosyl-DNA phosphodiesterase 1 (TDP1): qHTS in cells in presence of CPT; also: nearly all actives have a fitted effect of over 55% in size
# Details: chicken DT40 Tdp1-/-;hTDP1 cells + 20 nM CPT, ATP luminescence, 48 h; activity change, negative = growth inhibition: at 46.2 µM (top of the series) unless noted
# Outline: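 Cell growth measured by CellTiter-Glo luminescence after a minimum 48 h, 37 C compound exposure with 20 nM CPT in Tdp1-knockout DT40 cells stably expressing hTDP1, seeded 400/well; qHTS titration format.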
# % is scaled to controls: 0 for no effect and ±100 for the full control effect; potency is read from the fitted curve at half-maximal effect; tags tell the direction and shape of the fitted curve.
SMILES,Potency,"activity change, negative = growth inhibition"
Cc1ccc(OS(=O)(=O)c2ccccc2)c(/C=N/N=C2\NC(=O)C(C)S2)c1 (stereo unspecified),"inconclusive: 29.1 µM [inhibitor, single point]",
Cc1cc(-c2ccccc2)c2c3c(c(-c4ccccc4)n2n1)c(=O)n(C)c(=O)n3C,,inconclusive: -32.7% [inhibitor]
COc1ccc(C(=O)NC(C)c2cccnc2)cc1S(=O)(=O)N(C)Cc1ccccc1 (stereo unspecified),,inactive: -18%
O=C(Cn1sc2ccccc2c1=O)Nc1ccccc1,active: 2.31 µM,
CN(C)CCN1CCN(C2CN(Cc3ccc([N+](=O)[O-])cc3)S(=O)(=O)C2)CC1 (stereo unspecified),,inactive: -19%
Cc1ccc(-c2cc(C(=O)Oc3ccccc3Cl)no2)cc1C,,inactive: -4.37%
O=c1[nH]nc(SCCS(=O)(=O)c2ccc(F)cc2)n1-c1ccc2c(c1)OCCO2,"inconclusive: 32.6 µM [inhibitor, partial curve, poor fit]",
Cc1ccc(N2CCN(C(=O)c3cc(S(=O)(=O)N4CCCCC4)c[nH]3)CC2)c(C)c1,active: 16.4 µM,
COc1ccccc1CNc1cc(CSc2ccc(Cl)cc2)nc(C)n1,"inconclusive: 18.4 µM [inhibitor, single point]",
COc1ccc(C(C(=O)NCC2CCCO2)N(Cc2cccs2)C(=O)c2snc(C(N)=O)c2N)cc1 (stereo unspecified),active: 16.4 µM,
Oc1ccc(CN2CCCCC2)c2cccnc12,active: 5.17 µM,
O=C(c1cccc(F)c1)N1CCC2(CCCN(C(c3ccccc3)c3ccccc3)C2)CC1,"inconclusive: 29.1 µM [inhibitor, single point]",
COc1ccccc1NC(=O)CSc1nnc(-c2ccco2)n1Cc1ccco1,"inconclusive: 23.1 µM [inhibitor, single point]",
C=CCn1c2ccccc2c2nnc(SCc3[nH]c(=O)[nH]c3C(=O)CCCCC(=O)OCC)nc21,"inconclusive: 29.1 µM [inhibitor, single point]",
CC(C)CNC(=O)c1cccc(NC(=O)c2ccc(NC(=O)c3ccco3)cc2)c1,"inconclusive: 20.6 µM [inhibitor, single point]",
Cc1cccc(OCC(=O)N(Cc2ccccc2)c2ccccn2)c1,"inconclusive: 11.6 µM [inhibitor, partial curve]",
CCOc1ccc2oc(C(=O)NNC(=O)c3csc(N4CCOCC4)n3)c(C)c2c1,,inactive: -8.61%
CNC(=O)Nc1ccc(S(N)(=O)=O)cc1,,inactive: 11.2%
COc1ccc(CNC(=O)C[C@H]2C[C@H](C(=O)N3CCCCC3)[C@@]3(C)c4[nH]c5cc(CCC(=O)N(C)C)ccc5c4CCN3C2=O)cc1OC,,inactive: -12.5%
OC(COCC1COc2ccccc2O1)CN1CCN(c2ccccc2)CC1 (stereo unspecified),"inconclusive: 29.1 µM [inhibitor, single point]",
O=C(NCc1ccco1)c1ccccc1Br,,inconclusive: -33.8% [inhibitor]
Cc1onc(-c2ccccc2)c1C(=O)N(Cc1ccco1)Cc1cccs1,"inconclusive: 29.1 µM [inhibitor, single point]",
COc1ccc(C2C(=O)N(C3CCCCCC3)CC(=O)N2CCC2=CCCCC2)cc1 (stereo unspecified),active: 23.1 µM,
CCn1c(=O)c(C(=O)NCc2cccnc2)c(O)c2ccccc21,"inconclusive: 29.1 µM [inhibitor, single point]",

SMILES,Potency,"activity change, negative = growth inhibition"
CS(=O)(=O)N1CCCc2cc(C(=O)Nc3cccc(C(F)(F)F)c3)ccc21,"inconclusive: 29.1 µM [inhibitor, single point]",
O=C(COC(=O)/C=C/C(=O)OCC(=O)Nc1ccccc1F)Nc1ccccc1F,"inconclusive: 18.4 µM [inhibitor, partial curve]",
COC(=O)c1cnc(N2CCN(c3ccc(F)cc3)CC2)c2ccccc12,"inconclusive: 25.9 µM [inhibitor, single point]",
COc1ccc(N(CC(C)C)S(=O)(=O)c2nnc(NC(=O)CC(C)C)s2)cc1,active: 3.66 µM,
CNC(=O)c1cccn1-c1ccsc1C(=O)OC,"inconclusive: 18.4 µM [inhibitor, single point]",
O=C(Nc1ccc(OCC(=O)N2CCOCC2)cc1)c1cc(F)c(F)cc1Cl,,inactive: -7.2%
CCCSc1nnc(NC(=O)Nc2ccc(C)cc2)s1,"inconclusive: 29.1 µM [inhibitor, single point]",
O=C(OCC(=O)c1ccc[nH]1)c1cncc(Br)c1,,inactive: 8.57%
CC(=O)NS(=O)(=O)c1ccc(N2C(=O)c3ccccc3C2=O)cc1,,inactive: 4.74%
Cc1nc(-c2ccc(F)cc2)c(CC(=O)N(C)CC(=O)Nc2cccc(F)c2)s1,"inconclusive: 32.6 µM [inhibitor, single point]",
COc1ccc(CCNC(=O)c2ccc3c(Cl)c4c(nc3c2)CCCC4)c(OC)c1,active: 16.4 µM,
O=c1[nH]c(CCC2CCCC2)nc2ccccc12,"inconclusive: 23.1 µM [inhibitor, single point]",
CCOC(=O)c1ccc2c(c1)nc(C1CCN(S(=O)(=O)c3cccs3)CC1)n2CC,active: 14.6 µM,
Cc1ccc(OCCSc2nnc(NC(=O)c3ccco3)s2)cc1,"inconclusive: 0.411 µM [inhibitor, full curve, poor fit]",
Cc1ccc(OCC(=O)N(C)CC(=O)Nc2ccc(Cl)c(C(F)(F)F)c2)c([N+](=O)[O-])n1,"inconclusive: 23.1 µM [inhibitor, single point]",
Cc1ccc(Cl)cc1NC1=NC(=S)N(C(C)C)C12CCCCC2,"inconclusive: 20.6 µM [inhibitor, partial curve]",
CCOC(=O)N1CCN(C(=O)C2CCCN(S(=O)(=O)c3ccc(F)cc3)C2)CC1 (stereo unspecified),"inconclusive: 23.1 µM [inhibitor, single point]",
CC1CCC(NC(=O)c2ccc(CS(=O)(=O)c3c(Cl)cccc3Cl)o2)CC1 (stereo unspecified),active: 14.6 µM,
CC(=O)c1ccc(N2CCN(c3ncnc4onc(C)c34)CC2)cc1,active: 4.11 µM,
CCN(CC)C(=O)Cn1cc(/C=C(\C#N)C(=O)N2CCN(c3ccccc3)CC2)c2ccccc21,active: 20.6 µM,
O=C(CNc1cccc(C(F)(F)F)c1)N/N=C/c1cccc(Br)c1,active: 18.4 µM,
CC1CCN(c2ccc(C(F)(F)F)cc2N)CC1,"inconclusive: 16.4 µM [inhibitor, single point]",
O=C(CSc1nc2ccccc2s1)NNC(=S)Nc1ccc(Cl)cc1,,inactive: -4.87%
COC(=O)c1ccc(CSc2nc3c(c(=O)[nH]2)CCC3)cc1,"inconclusive: 29.1 µM [inhibitor, single point]",

SMILES,Potency,"activity change, negative = growth inhibition"
O=C(NCCN1CCCCC1)c1ccc(Cn2c(SCc3cccc(F)c3)nc3cccnc32)cc1,"inconclusive: 29.1 µM [inhibitor, single point]",
Cc1cccc(-c2n[nH]c(=S)n2/N=C/c2ccc(C)s2)c1,"inconclusive: 29.1 µM [inhibitor, single point]",
O=C(Cc1ccccc1)N1CCN(c2ccc([N+](=O)[O-])cc2)CC1,"inconclusive: 14.6 µM [inhibitor, partial curve]",
COc1cc(-c2nc(-c3cccc(Cl)c3)c(-c3ccccc3)[nH]2)cc(OC)c1OC,active: 18.4 µM,
C[C@@H]1CN([C@@H](C)CO)C(=O)CCCn2nncc2CO[C@H]1CN(C)C(=O)C1CCCCC1,,inactive: 0.414%
COc1ccc(OCC(=O)Nc2ccccc2C(=O)OCc2cc(=O)n3nc(C)sc3n2)cc1,"inconclusive: 29.1 µM [inhibitor, single point]",
N#CCCn1cc(C(=O)Nc2ccccn2)c(-c2ccccc2)n1,,inactive: 0.422%
CC(Oc1ccc(Cl)cc1C(N)=O)C(=O)N1CCc2ccccc21 (stereo unspecified),"inconclusive: 18.4 µM [inhibitor, single point]",
CCCCNC(=O)c1nc(C2CCN(S(=O)(=O)c3c(F)cccc3F)CC2)oc1-c1ccccc1,active: 9.2 µM,
CC(=O)c1ccc(S(=O)(=O)NC2CC(=O)N(c3ccc(Cl)cc3)C2)cc1 (stereo unspecified),"inconclusive: 16.4 µM [inhibitor, single point]",
O=C(NCC1COc2ccccc2O1)c1cc(S(=O)(=O)N2CCOCC2)c(Cl)cc1Cl (stereo unspecified),"inconclusive: 29.1 µM [inhibitor, single point]",
O=C(COC(=O)C1CCN(S(=O)(=O)c2ccc3c(c2)OCCO3)CC1)Nc1cccc2ccccc12,,inactive: -22.6%
Cc1ccc2nc(N3CCN(c4cccc(C)c4C)CC3)c3nncn3c2c1,,inactive: -24.9%
COc1ccc2cc(S(=O)(=O)N3CCCC(C)C3)ccc2c1 (stereo unspecified),"inconclusive: 29.1 µM [inhibitor, single point]",
COc1ccc(C)cc1S(=O)(=O)N(CC(=O)N1CCOCC1)Cc1ccccc1,,inactive: -9.17%
O=C(/C=C/c1ccc(F)cc1)NC(=S)Nc1ccccc1O,"inconclusive: 14.6 µM [inhibitor, partial curve, poor fit]",
O=C(NNC1=NS(=O)(=O)c2ccccc21)c1ccccc1,,inactive: -13%
O=[N+]([O-])c1cccc(C(=S)N2CCN(c3ccc(F)cc3)CC2)c1,"inconclusive: 9.2 µM [inhibitor, partial curve]",
Cc1cc(-c2ccccc2)nc(Cl)c1C#N,,inactive: 2.44%
CC1(Cc2cc(Cl)ccc2C(F)(F)F)C(=O)Nc2cc(C(F)(F)F)ccc21 (stereo unspecified),active: 23.1 µM,
CC(=O)N1CCc2cc(S(=O)(=O)NCCC(=O)N3CCN(c4ccccn4)CC3)ccc21,,inactive: -23.2%
COC(=O)c1ccc2nc(-c3ccc(C)cc3)c(Cc3cccc(Cl)c3)n2c1,active: 16.4 µM,
COC(=O)C[C@H]1c2cc(C(F)(F)F)ccc2S(=O)(=O)N1C(C)(C)C,"inconclusive: 35.5 µM [inhibitor, single point] and inconclusive: 18.4 µM [inhibitor, single point]",
